Source: the supplement of paper PMC12217912
The list shows a part of the results. Sequences were assembled here from the parent chain. Values near 0.05 are background.

B1: TEV protease; numbered along this chain (parent)
chain: MGESLFKGPRDYNPISSSICHLTNESDGHTTSLYGIGFGPFIITNKHLFRRNNGTLVVQSLHGVFKVKDTTTLQQHLVDGRDMIIIRMPKDFPPFPQKLKFREPQREERICLVTTNFQTKSMSSMVSDTSCTFPSGDGIFWKHWIQTKDGQCGSPLVSTRDGFIVGIHSASNFTNTNNYFTSVPKNFMELLTNQEAQQWVSGWRLNADSVLWGGHKVFMVKPEEPFQPVKEATQL

Variants of: B1
Experiment: raw area under fraction-flipped curve 0-4 h after induction (AUC4h, not background-subtracted), DNA-recorder readout of cleavage of the substrate (dimensionless); higher = more cleavage of the substrate by the protease variant
Settings: temperature: 34 °C; time window: 0-4 h after rhamnose induction
Procedure: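 In vivo DNA recorder in E. coli TOP10(DE3) ΔrhaA at 34 °C. Each TEVp single-site mutant (parent TEVp 0) is paired with a single-site variant of the 7-mer TEVs (canonical ENLYFQ|S). The substrate sits between flexible linkers in a Bxb1-sfGFP-TEVs-SsrA fusion, so cleavage stabilises Bxb1 and speeds flipping of a recombination array, read by NGS. The value is the raw area under the fraction-flipped curve over 0-4 h after rhamnose induction (AUC4h), with ≥20 reads per time point. It is not background-subtracted; inactive controls average about 0.047.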
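Note: Bxb1 expression induced with 0.2% (w/v) L-rhamnose at OD600 near 0.5, cultures sampled hourly, flipped fraction per protease–substrate barcode pair counted by paired-end Illumina sequencing.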

Variant | area with substrate ENAYFQS | area with substrate ENCYFQS | area with substrate ENEYFQS | area with substrate ENFYFQS | area with substrate ENHYFQS | area with substrate ENIYFQS | area with substrate ENKYFQS | area with substrate ENNYFQS | area with substrate ENPYFQS | area with substrate ENQYFQS | area with substrate ENRYFQS | area with substrate ENSYFQS | area with substrate ENVYFQS | area with substrate ENWYFQS | area with substrate ENYYFQS | area with substrate ENDYFQS | area with substrate ENGYFQS | area with substrate ENMYFQS | area with substrate ENTYFQS
C111I | 0.0581 | 0.0649 | 0.0598 | 0.0764 | 0.0549 | 0.0955 | 0.0661 | 0.0624 | 0.0684 | 0.0659 | 0.0635 | 0.0562 | 0.0755 | 0.0049 | 0.0667 | – | – | – | –
V126R | 0.0668 | 0.0626 | – | 0.0624 | 0.0638 | 0.122 | 0.0884 | 0.0507 | 0.0502 | 0.0621 | 0.0588 | 0.0654 | 0.0769 | 0.0512 | – | 0.0677 | 0.0765 | 0.0257 | 0.0592
E107S | 0.0674 | 0.0653 | 0.0683 | 0.0733 | 0.0606 | 0.109 | 0.0606 | 0.0643 | 0.0605 | 0.0607 | 0.0485 | 0.0591 | 0.086 | 0.0112 | – | 0.0535 | – | 0.0761 | 0.0593
E107N | 0.0521 | 0.0638 | 0.0631 | 0.0645 | 0.0627 | 0.116 | 0.0651 | – | 0.0656 | 0.0748 | 0.0564 | 0.0619 | 0.0813 | – | – | 0.0513 | 0.0924 | – | 0.0787
E107M | 0.0481 | 0.0768 | – | – | 0.0643 | 0.0912 | 0.0566 | 0.0843 | 0.0618 | 0.0495 | 0.0455 | 0.067 | – | – | – | 0.0632 | – | – | –
S127H | 0.0614 | 0.0683 | 0.0641 | 0.0768 | 0.0448 | 0.106 | 0.076 | 0.0701 | 0.07 | 0.0425 | – | 0.0616 | 0.0824 | – | 0.0573 | – | 0.0572 | – | 0.0659
S127Y | 0.0547 | 0.0506 | 0.06 | – | – | 0.155 | 0.0585 | – | 0.0586 | – | – | 0.0496 | – | – | – | 0.0476 | 0.0521 | 0.0896 | 0.072
S127A | 0.0715 | 0.0619 | 0.062 | 0.0621 | 0.0446 | 0.125 | 0.0467 | 0.0604 | – | 0.0681 | – | 0.117 | 0.0788 | 0.0488 | 0.0452 | 0.0645 | 0.0742 | 0.12 | 0.0616
V113A | 0.064 | 0.0662 | 0.0582 | 0.0584 | – | 0.105 | – | 0.0486 | – | 0.0588 | – | 0.057 | 0.0733 | – | 0.0475 | 0.049 | – | 0.0578 | –
N116E | 0.0629 | 0.0662 | 0.0647 | 0.0524 | 0.0547 | 0.0845 | – | 0.0437 | 0.0687 | 0.0484 | 0.0566 | 0.0466 | – | 0.0061 | – | 0.051 | 0.0617 | 0.0581 | –
S123V | 0.0516 | 0.0555 | 0.0707 | 0.0615 | 0.0594 | 0.116 | 0.0793 | 0.0611 | – | 0.0587 | 0.0585 | 0.0522 | 0.0924 | – | 0.0709 | 0.0676 | – | 0.0796 | –
K120Q | 0.0642 | – | 0.0556 | 0.066 | – | – | 0.0466 | 0.0729 | – | – | 0.062 | 0.0627 | 0.0781 | – | 0.0541 | 0.0612 | 0.0603 | – | 0.0691
S124D | 0.0573 | 0.0712 | 0.0406 | 0.0813 | 0.0561 | – | 0.0603 | 0.0594 | – | 0.0557 | – | 0.0553 | 0.0314 | 0.0611 | – | 0.0588 | 0.0498 | 0.084 | –
S124M | 0.0972 | – | 0.0556 | 0.059 | 0.0529 | 0.13 | – | 0.0508 | 0.052 | 0.0605 | – | 0.061 | 0.0435 | – | 0.038 | 0.0556 | 0.0493 | – | 0.0621
S124E | 0.0613 | – | – | – | – | – | – | 0.0659 | 0.0514 | 0.0465 | – | 0.0536 | 0.0556 | – | – | 0.0625 | 0.0638 | 0.0905 | –
K100S | 0.0707 | 0.0713 | 0.0646 | 0.061 | 0.0612 | – | – | – | 0.056 | 0.0588 | 0.0689 | 0.0641 | – | – | – | 0.0562 | 0.0581 | – | –
C131T | 0.0733 | – | – | 0.0633 | – | – | – | 0.0553 | 0.0557 | 0.0633 | – | 0.0629 | 0.0964 | – | 0.0553 | – | – | – | 0.0954
M122H | 0.0729 | 0.0726 | 0.0423 | 0.0763 | – | 0.105 | 0.065 | – | 0.0313 | 0.0613 | 0.0475 | 0.0652 | 0.0776 | – | – | 0.0628 | 0.0651 | 0.0732 | 0.0622
M122W | 0.0557 | 0.0929 | 0.0561 | 0.0928 | – | – | 0.058 | 0.0467 | 0.0427 | 0.0582 | 0.0435 | 0.0489 | 0.0541 | – | – | 0.0565 | 0.063 | 0.0854 | –
M122L | 0.0599 | 0.0646 | 0.0628 | 0.053 | – | – | 0.058 | 0.0645 | 0.0551 | 0.0587 | 0.0516 | 0.0583 | 0.0795 | 0.0072 | 0.0501 | – | – | 0.0606 | 0.0616
T114Q | 0.0581 | 0.0668 | 0.0623 | 0.0647 | 0.0576 | – | 0.0759 | 0.0614 | 0.0531 | 0.0707 | 0.0646 | 0.0649 | 0.0969 | – | 0.0757 | 0.0649 | – | 0.111 | 0.0798
T114P | 0.056 | 0.0481 | – | 0.0695 | 0.0608 | 0.0922 | 0.0616 | – | – | 0.0567 | 0.0569 | 0.0498 | – | 0.0363 | – | 0.0531 | – | – | –
I110Q | 0.0493 | 0.0573 | 0.0502 | 0.0524 | 0.065 | – | – | 0.0239 | – | – | – | 0.0441 | – | – | 0.0619 | – | – | 0.0551 | 0.0455
I110M | 0.0406 | 0.0542 | 0.0644 | 0.0538 | – | 0.0698 | – | 0.0679 | 0.0509 | 0.0621 | 0.0592 | 0.0777 | 0.0645 | – | 0.0416 | 0.0558 | 0.061 | 0.0638 | 0.0523
T119H | 0.0655 | – | – | 0.0538 | 0.0391 | 0.101 | – | 0.0574 | 0.0343 | 0.0491 | – | 0.0552 | – | – | – | 0.0502 | – | – | 0.0468
R109H | 0.0485 | – | 0.0549 | 0.0484 | – | 0.121 | 0.096 | 0.0579 | 0.0436 | – | 0.0626 | – | – | 0.055 | – | 0.0639 | 0.0549 | – | 0.0656
